These results are taken from the RNAGym collection of RNA variant scans (doi:10.1101/gad.245936.114).

B1: tRNA (parent)
chain: CUCUCGGUAGCCAAGUUGGUUUAAGGCGCAAGACUUUAAUUUAUCACUACGAAAUCUUGAGAUCGGGCGUUCGACUCGCCCCCGGGAGAUUUUUUCCUCGAGCAA

This sample is rich in variants without activity.

In this data set the parent is B1. The data set can be described thus: nonsense suppression (GFP-seq) (ratio to wild type); higher = more function; SUP4oc tRNA, yeast GFP reporter sort-seq. The method, boiled down:
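Yeast were grown in raffinose/galactose medium with 80 mg/L adenine, each strain bearing a genome-integrated ochre-suppressor tRNA variant from a ~3% random-mutation library, a galactose-driven GFP ochre reporter, and RFP. After sorting into GFP/RFP bins, every bin was sequenced on an Illumina platform at phred ≥30. The GFPSEQ value, a measure of nonsense suppression, is the weighted bin median GFP/RFP relative to the unmutated parent tRNA, using each variant's estimated cell share per bin as the weight. Only variants with ≥100 reads and ≥30 cells were included.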
Take CUGUCGGUAGCCAAGUUGGUUUAAGGCGCAAGACUUUAAUUUAUCACUACGAAAUCUUGAGAGCGGGCGCUCGACUCGCCCCCGGGGGAUUUUUUCCUCGAGCAA: the nonsense suppression was no more than 0.026. For CUCUCGGUAGCCAAGUUGGUUUCAGGCGCAAGACUUUAAUUUAUCACUACGAAAUCUUGAGAUCGGACGUUUGACUCGCCCCCGGGAGAUUUUUUCCUCGAGCAA, the nonsense suppression was no more than 0.026. The same measure for CUCGCGGUAGCCAAGUUGGUUUAAGGCGCAAGACUUUAAUUUAUCACUACGAAAUCAUGAGAUCGGGCGUUCGACUCGCCCCCGGGAGAUUUUUUCCUCGAGCAA: no more than 0.026. In the case of CUCUCGGUAGCCAAGUUGGGUUAAGGCGCCAGACUUUAAUUUAUCACUACGAAAUCUUGAGAUCGGGCGUUCGACUCGCCCCCGGGAGAUUUUUUCCUCGAGCAA it was no more than 0.026; in that of CUCUCGGUAGCCAAGUUGGUUUAAGGCGCAUGACUUUAAUUUAUCACUACGAAAUCUUGCGAUCGGGCGUUCGACUCGCCCCCGGGAGAUUUUUUCCUCGAGCAA, 0.0348. Consider CUCUCGGUAGCCACGUUGGUUUAAGGCGCAAGACUUUAAUUUAUCACUACGAAAUCUUGAAAUCGGGCGUUCGACUCGCUCCCGGGAGAUUUUUUCCUCGAGCAA, for which the nonsense suppression is no more than 0.026.

As for CUCUCGGUAGCCAAGUUAGUUUACGGCGCAAGACUUUAAUUUAUCACUACGAAAUCUUGAGAUCGGGCGUUCGACUCGCCCCCGGGAGAUUUUUUCCUCGAGCAA, the nonsense suppression is 0.0483. In the case of CUCUCGGUAGCCAAGUCGGUUUAAGGCGCAAGACUUUAAUUUAUCACUACGAAAUCUUGAGAUCGGGCGUUCGGCUCGUCCCCGGGAGAUUUUUUCCUCGAGCAA it was no more than 0.026; in that of CUCUCGGUAGCCAAGUUGGUUUAGGGCGCAAGACUUUAAUUUAUCACUACGAAAUCUUGAGAUCGGGCGUACGACUCGCCCCCGGGAGAUUUUUUCCUCGAGCAA, no more than 0.026; in that of CACUCGGUAGCCAAGUUGGUUUAAGGCGCAAGAAUUUAAUUUAUCACUACGAAAUCUUGAGAUCGGGCGUUCGACUCGCCCCCGGCAGAUUUUUUCCUCGAGCAA, no more than 0.026. Take CUCUCGGUAGCCAAGUUGGUAUAAGGCGCAAGACUUUAAUUUAUCACUACGAAAUCUUGAGAUCGGGCUUUCGACUCGCCCCCGGGAGAUUUUUUCCUCGAGCAA: the nonsense suppression is no more than 0.026. In the case of CUCUCGGAAGCCAUGUUGGUUUAAGGCGCAAGACUUUAAUUUAUCACUACGAAAUCUUGAGAUCGGGCGUUCGACUCGCCCCCGGGAGAUUUUUUCCUCGAGCAA it was no more than 0.026; in that of CUCUCGGUAGCCACGUUGAUUUAAGGCGCAAGACUUUAAUUUAUCACUACGAAAUCUUGAGAUCGGGUGUUCGACUCGCCCCCGGGAGAUUUUUUCCUCGAGCAA, no more than 0.026. In the case of CUCUCGGUAGCCAAGUUGGUUUAAGGCGCAAGACUUUAAUUUAUCACUACGAAAUCUUCAGAUCAGGCGUUCGACUCGCCCCCGGGAGAUUUUUUCCUCGAGCAA it was no more than 0.026. In the case of AUCUCGGUAGCCAAGUUGGUUUAAGGGGCAAGACUUUAAUUUAUCACUACGAAAUCUUGAAAUCGGGGGUUCGACUCACCCCCGGGAGAUUUUUUCCUCGAGCAA it was no more than 0.026; in that of CUCUCGGUAGCCAAGUUGGUUUAAGGCGCAAGACUUUAAUUUAUCACUACGAAAUCUUGAGAUCGGGCGUUCGCCUCGCCCCCUGGAGAUUUUUUCCUCGAGCAA, no more than 0.026. For the variant CUCUCGGUAGCCAGGUUGGUUUAAGGAGCAAGACUUUAAUUUAUCACUACGAAAUCUUGAGAUCGGGCGUUCGACUCGCCCCCGGGAGAUUUUUUCCUCGAGCAA, the nonsense suppression was no more than 0.026.

With CUCUCGGUAGCCAAGUUGGUUUAAGGCGCAAGACUUUAAUUUAUCACUACGAAAUCUUGGGAUCGGGCGUUCGACUCGCCCACGGGAGAUUUUUUCCUCGAGCAA, the nonsense suppression stood at 0.0331.

Regarding CUCUCGGUAGCCAAGUUGGUUUAAGGCGCAAGACUUUAAUUUAUCACUACGAAAUCUUGAUAUCGGGCGUCCGACACGCCCCCGGGAGAUUUUUUCCUCGAGCAA, the nonsense suppression is no more than 0.026. Regarding CUCUCGGUAGCCAAUUUGGUUUAAGGCGCAAGACUUUAAUUUAUCACUACGAAAUCCUGAGAUCGGGCGUUCGACUCGCCCCCGGGAGAUUUUUUCCUCGAGCAA, the nonsense suppression was no more than 0.026.

With CUCUCGAUAGCCAAGUUGGUUUUAGGCGCAAGACAUUAAUUUAUCACUACGAAAUCUUGAUAUCGGGCGUUCGACUCGGCCCCUGGAGAUUUUUUCCUCGAGCAA, the nonsense suppression was no more than 0.026.

Regarding UUCUCGGUAGCCAUGUUGGUUUAAGGCGCCACACUUUAAUUUAUCACUACGAAAUCUUUAGAUCGGGCGUUCGGCUCGCCCCCGGGAGAUUUUUUCCUCGAGCAA, the nonsense suppression is no more than 0.026. With CUCGGGGUAGCCAAGUUGGUUUAAGGCGCAAGACUUUAAUUUAUCACUACGAAAUCAUGAGAUCGGGCGUUCGACUCGCCCCCGGGAGAUUUUUUCCUCGAGCAA, the nonsense suppression is no more than 0.026. Turning to UUAUCGGUAGCCAAGUUGGUUUAAGGCGCAAGACUUUAAUUUAUCACUACGAAAUCUUGAGAUCGGGCGUUCGACUCGCCCCCGGGAGGUUUUUUCCUCGAGCAA, the nonsense suppression was no more than 0.026. Turning to CACUCGGCAGCCAAGUUGGAUUAAGGCGCAAGACUUUAAUUUAUCACUACGAAAUCUUGAGAUCGGGCGUUCGACUCGCCCCCGGGAGAUUUUUUCCUCGAGCAA, the nonsense suppression was no more than 0.026. Take CUCUCGGUAGCCAAGUUGGUUUAAGGCGCUAGACUUUAAUUUAUCACUACGAAAUCUUGAGAUCGGGCGUUCGACUUGCCCCCGGGAGAUUUUUUCCUCGAGCAA: the nonsense suppression is no more than 0.026. The same measure for CUCUCGGUAGCCAAGGUGGUUUAAGGCGCAAGAAUUUAAUUUAUCACUACGAAAUCUUGAGAUCGGUCGUUCGACUCGCCCCCGGGAGUUUUUUUCCUCGAGCAA: no more than 0.026.
